This is an account of results in the supplement of paper PMC4723716.

± gives the uncertainty stated by the source. In all, about 9,900 compounds were measured (“viability index relative to DMSO control”: median about 1, lowest 2% from about 0.85 on). This is one part of the list.

In the experiment the test system is Plasmodium falciparum NF54 stage V gametocytes. The experiment in a line: viability index relative to DMSO control (fraction); higher = less gametocyte killing. As to conditions: 2.5 µM, incubation time: 72 h. Put shortly: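 In 1,536-well plates, 10 µl of serum-free medium holding P. falciparum NF54 stage V gametocytes (0.75% gametocytemia, 1.25% hematocrit) received compound at 2.5 µM for 72 hr at 37°C in low oxygen. After one to two hours with 3 µl of 2.5 µM MitoTracker Red CMXRos containing 0.13% saponin, red particles of 20–70 µm2 were counted in a single field per well. Viability index is reported as the particle count over the plate mean of wells treated with solvent only.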

The mark [1] stands for this setting: library set: Broad Institute DOS.

`N#C[C@@H]1[C@@H](c2ccc(C#Cc3ccccc3F)cc2)[C@H](CO)N1C(=O)c1cccnc1` returned a viability index under setting [1] of 0.9522 ± 0.0064.
Under setting [1], `CN1C(=O)c2cc(NC(=O)NCc3ccccc3)ccc2OC[C@@H]2O[C@@H](CC(=O)NCC3CCCCC3)CC[C@@H]21` displayed a viability index of 1.05 ± 0.03.
In turn, `O=C(C[C@@H]1CC[C@@H]2[C@H](COC[C@H](O)CN2S(=O)(=O)c2ccccc2)O1)Nc1ccccc1` registered a viability index under setting [1] of 1.07 ± 0.042.
On to `CCS(=O)(=O)Nc1ccc2c(c1)C(=O)N(C)[C@H]1CC[C@H](CC(=O)NCc3ccccc3F)O[C@H]1CO2`, for which the viability index under setting [1] worked out at 1.12 ± 0.12.
For the compound `C/C=C/c1ccc([C@@H]2[C@@H](CO)N[C@@H]2CN(CC(C)C)C(=O)c2ccccn2)cc1`, under setting [1], the viability index was 0.996 ± 0.035.
The same measure, in the same setting: under `C[C@H]1CN([C@@H](C)CO)S(=O)(=O)c2ccc(-c3ccncc3)cc2O[C@@H]1CN(C)S(C)(=O)=O` stands 1.042 ± 0.0078; under `CC(C)NC(=O)Nc1ccc2c(c1)C(=O)N(C)[C@H]1CC[C@@H](CC(=O)NCc3ccc(F)cc3)O[C@H]1CO2`, 0.814 ± 0.17; under `CO[C@@H]1CN(C)C(=O)c2cc(NS(=O)(=O)c3cn(C)cn3)ccc2OC[C@H](C)NC[C@H]1C`, 1.05 ± 0.025.
In the case of `O=C(C[C@@H]1CC[C@@H]2[C@H](COC[C@H](O)CN2C(=O)Nc2cc(Cl)cc(Cl)c2)O1)N1CCOCC1`, the viability index under setting [1] was found to be 1.019 ± 0.003.
Consider `C[C@H]1CN([C@@H](C)CO)C(=O)CCCn2nncc2CO[C@H]1CN(C)C(=O)Nc1cccc(Oc2ccccn2)c1`, for which the viability index under setting [1] is 1.03 ± 0.025.
In the case of `O=C(C[C@H]1CC[C@H]2[C@@H](COC[C@H](O)CN2C(=O)c2cnccn2)O1)N1CCN(c2ccccc2)CC1`, under setting [1], the viability index came out at 1.01 ± 0.057.
Consider `COc1ccc(C(=O)N2C[C@@H]3[C@H](c4ccccc42)[C@H](CO)N3C(=O)Cc2ccccn2)cc1`, for which the viability index under setting [1] worked out at 1.096 ± 0.0012.
Consider `O=C(C[C@@H]1CC[C@@H]2[C@H](COC[C@@H](O)CN2C(=O)c2ccncc2)O1)NCc1cc(F)cc(F)c1`, for which the viability index under setting [1] was 1.05 ± 0.12.
Regarding `CO[C@H](CN(C)C(=O)C1CCOCC1)[C@H](C)CN([C@H](C)CO)S(=O)(=O)c1ccccc1`, under setting [1], the viability index was 1.09 ± 0.072.
In the case of `N#Cc1cccc(-c2ccc([C@@H]3[C@@H]4CN(Cc5ccccc5)C[C@H]3N4)cc2)c1`, the viability index under setting [1] was 1.04 ± 0.08.
`COc1ccc(CN(C)C[C@@H]2OCc3cnnn3CCCC(=O)N([C@@H](C)CO)C[C@H]2C)cc1` yielded a viability index under setting [1] of 1.02 ± 0.061.
As to `CC(C)NC(=O)N1[C@H](CO)[C@H](c2ccccc2)C12CN(C(=O)c1ccccn1)C2`, under setting [1], the viability index amounted to 1.04 ± 0.019.
On the same count and under the same terms, under `O=C1CN(S(=O)(=O)c2cccc(F)c2)C[C@@H]2[C@H](c3ccc(C4=CCCC4)cc3)[C@H](CO)N12` stands 1.01 ± 0.059; under `CS(=O)(=O)Nc1ccc2c(c1)[C@@H]1C[C@@H](CC(=O)NCc3cc(F)ccc3F)O[C@@H](CO)[C@@H]1O2`, 1.1 ± 0.064.
Still for that read-out and setting: with `COc1ccc(C(=O)Nc2ccc3c(c2)C(=O)N(C)[C@@H]2CC[C@H](CC(=O)NCC4CC4)O[C@@H]2CO3)cc1` the figure was 0.984 ± 0.14; with `CCS(=O)(=O)N1CC2(C1)[C@H](c1ccccc1)[C@@H](CO)N2Cc1ccccn1`, 1.09 ± 0.018; with `O=C(C[C@@H]1C=C[C@H](NS(=O)(=O)c2ccc(F)cc2)[C@@H](CO)O1)N1CCc2ccccc2C1`, 0.943 ± 0.012.
The compound `CN(C)CC(=O)N[C@H]1C=C[C@H](CC(=O)NCc2ccc(Cl)cc2)O[C@@H]1CO` showed a viability index under setting [1] of 1.08 ± 0.087.
In the case of `O=C(C[C@@H]1CC[C@H]2NC[C@H](O)COC[C@@H]2O1)NCCN1CCCCC1`, under setting [1], the viability index is 1.03 ± 0.051.
As to `COc1ccc(C#Cc2ccc3c(c2)[C@@H]2[C@@H](CCN2C(=O)C2CCOCC2)[C@@H](CO)N3)cc1`, the viability index under setting [1] came out at 1.07 ± 0.05.
Still for that read-out and setting: under `CCCNC(=O)N(C)C[C@@H]1Oc2cc(C#C[C@@H](C)O)ccc2S(=O)(=O)N([C@@H](C)CO)C[C@H]1C` stands 0.981 ± 0.099; under `O=C([C@H]1[C@H](CO)[C@H]2Cn3c(cccc3=O)[C@H]2N1C(=O)CC1CC1)N1CCc2ccccc2C1`, 1.1 ± 0.061; under `COCC(=O)N1CC[C@@]2(CC1)CN(Cc1cc(F)ccc1F)[C@@H](CO)c1c2c2ccc(OC)cc2n1C`, 0.936 ± 0.069.
Consider `OC[C@H]1[C@H](c2ccc(C#Cc3ccccc3F)cc2)[C@@H]2CN(CC3CCOCC3)CCCCN12`, for which the viability index under setting [1] was 0.8726 ± 0.0019.
The same measure, in the same setting: under `CCC(=O)N1[C@H](CO)[C@@H]2c3ccccc3N(C(=O)Nc3ccc(Cl)cc3)C[C@@H]21` stands 1.04 ± 0.024.
In the case of `COc1ccc2c3c([nH]c2c1)[C@@H](CO)N(C[C@]31CCN(CC2CCCCC2)CC1)C(=O)CN(C)C`, the viability index (library set: Broad Institute Blood Stage) worked out at 0.807 ± 0.026.
The compound `COCC(=O)N1[C@H](C#N)[C@@H](c2ccccc2-c2ccccc2F)[C@@H]1CO` came in with a viability index under setting [1] of 1.15 ± 0.11.
Under setting [1], `O=C(C[C@H]1CC[C@H]2[C@@H](COC[C@@H](O)CN2S(=O)(=O)c2ccccc2F)O1)N1CCC(Cc2ccccc2)CC1` returned a viability index of 0.996 ± 0.1.
In the case of `CCCNC(=O)[C@@H]1[C@@H](CO)[C@@H]2Cn3c(ccc(/C=C/c4ccccc4)c3=O)[C@@H]2N1CC1CC1`, the viability index under setting [1] turned out to be 0.9825 ± 0.0088.
On the same count and under the same terms, with `Cc1noc(C)c1NC(=O)N(C)C[C@@H]1OCc2cnnn2CCCC(=O)N([C@@H](C)CO)C[C@@H]1C` the figure was 1.16 ± 0.018.
In the case of `O=C(C[C@@H]1CC[C@H]2[C@@H](COC[C@@H](O)CN2CC2CCOCC2)O1)NCC1CCCCC1`, under setting [1], the viability index amounted to 0.9901 ± 0.0047.
